Measurements: PubChem BioAssay AID1346428 (National Center for Advancing Translational Sciences (NCATS), 2018)
In all, about 48,000 compounds went through this assay and about 1,200 (2.5%) were called active. Another 2% or so got no clear call; they are omitted.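 The calls were made as follows: active = activation of at least 60% and not above a set upper limit (about 1 call in 100 departs from these limits); inconclusive = activation of 40% to 60%, or above that upper limit; inactive = activation under 40%.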 The list shows a part of the results.

Molecular target: Probable G-protein coupled receptor 32 (Homo sapiens) (UniProt O75388)
Sequence of UniProt O75388 (O75388 whole entry, looked up): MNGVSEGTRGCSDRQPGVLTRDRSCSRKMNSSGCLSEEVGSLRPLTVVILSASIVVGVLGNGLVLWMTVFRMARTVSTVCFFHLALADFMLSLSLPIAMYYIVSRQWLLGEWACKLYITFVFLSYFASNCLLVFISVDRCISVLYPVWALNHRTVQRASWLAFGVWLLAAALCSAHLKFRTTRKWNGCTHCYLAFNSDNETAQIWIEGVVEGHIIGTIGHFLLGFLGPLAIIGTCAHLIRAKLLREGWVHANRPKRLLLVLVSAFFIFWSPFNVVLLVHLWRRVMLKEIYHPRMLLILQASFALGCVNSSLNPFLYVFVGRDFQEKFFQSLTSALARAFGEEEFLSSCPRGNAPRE
Experiment: qHTS for Agonists of Human Resolvin D1 Receptor DRV1; also: 0% is about no effect
Settings: CHO-K1 GPR32 beta-arrestin PathHunter luminescence, 90 min; at 76.9 µM; stronger effect = higher value; zero percent set by DMSO-only wells
Outline: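 GPR32 activation in stably transfected CHO-K1 cells, detected as beta-arrestin recruitment by enzyme-fragment complementation. Compound exposure: 90 min, 37 °C.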

Row | SMILES | activation
1 | Cc1ccc2oc(-c3cccc(NC(=O)Cc4ccc(Cl)cc4)c3)nc2c1 | inactive: -5.12%
2 | CCOC(=O)c1cccc(NS(=O)(=O)c2cc(-c3cnc(C4CC4)o3)ccc2C)c1 | inactive: 6.98%
3 | Cc1ccc(-n2c3nc(=O)[nH]c(=O)c-3cc3c(C)nn(-c4ccccc4)c32)cc1C | inactive: 2.31%
4 | CCOC(=O)c1c(S(=O)(=O)N2CCCC(C(=O)Nc3ccc(C)cn3)C2)c(C)n(C)c1C (stereo not drawn) | inactive: -7.99%
5 | Cc1c(C(=O)OC(C)C)sc(NC(=O)C2c3ccccc3Oc3ccccc32)c1C(=O)OC(C)C | inactive: 3.54%
6 | Cc1ccc(Sc2c(C)nn(C(=O)c3ccc(Cl)cc3)c2C)cc1 | inactive: -9.96%
7 | CCCCN(CCCC)CCC(O)c1cc2c(Cl)cc(Cl)cc2c2cc(C(F)(F)F)ccc12 (stereo not drawn) | active: 98.9%
8 | C#C[C@]1(O)CC[C@H]2[C@@H]3CCc4cc(O)ccc4[C@H]3CC[C@@]21C | inactive: 33.5%
9 | COCCCNC(=O)CCCn1c(SCC(=O)c2ccc(F)cc2)nc2c(sc3ccccc32)c1=O | inactive: 5.09%
10 | COc1ccc(CNC(=O)CSc2ncc3c(n2)-c2ccc(Cl)cc2N(Cc2ccc(F)cc2)S3(=O)=O)cc1OC | inactive: -28.4%
11 | CCOc1cc(Br)cc(C2NC(=O)c3c(sc4c3CCN(C)C4)N2)c1O (stereo not drawn) | inactive: -0.186%
12 | CN(C)c1ccc(CNC(=O)c2ccc(Cn3c(=O)c4cccn4c4cccnc43)cc2)cc1 | inactive: -8.55%
13 | CC(C)(C)c1ccc(C(=O)NCC(c2ccco2)S(=O)(=O)c2ccc(F)cc2)cc1 (stereo not drawn) | inactive: -19.8%
14 | O=C(CSc1c2c(nc3ccccc13)CCC2)Nc1ccc(F)cc1 | inactive: -17.3%
15 | COc1ccc(Cn2c(C(=O)O)c(CNCc3ccco3)c3ccc(OC)cc32)cc1 | inactive: 31.3%
16 | COc1ccc(-n2cnc3cc(C(=O)NC4CCCC4)ccc32)cc1 | inactive: 13.9%
17 | CCOC(=O)c1ccc(NC(=O)CSc2nnc3c4ccccc4n(CC)c3n2)cc1 | inactive: 14.1%
18 | CCCOc1ccc(C(=O)N(Cc2ccccc2Cl)C2CCS(=O)(=O)C2)cc1 (stereo not drawn) | inactive: -12.3%
19 | COc1ccc(C2=Nc3ccc(F)cc3NC(c3cccc(C(F)(F)F)c3)=N2)cc1 | inactive: -4.23%
20 | Cc1ccc(Cn2c(CNC(=O)CCc3ccccc3)nc3cccnc32)cc1 | inactive: -18.1%
21 | Cc1cccc(N2CCN(Cc3nnc(-c4ccccc4C)o3)CC2C)c1 (stereo not drawn) | inactive: -16.1%
22 | CCc1ccc2ncc(C(=O)c3ccc(C)c(C)c3)c(N3CCC(C(N)=O)CC3)c2c1 | inactive: -11.7%
23 | COC(=O)c1ccccc1NC(=O)c1cnc(Nc2ccc(OC)cc2)c2ccccc12 | inactive: -9.37%
24 | CCCCOc1cccc(C(=O)N(Cc2ccc(N(C)C)cc2)C2CCS(=O)(=O)C2)c1 (stereo not drawn) | inactive: -36.2%
25 | Cc1cc(-c2nc3ncccc3o2)ccc1NC(=O)c1ccccc1Br | inactive: -7.66%
26 | O=C(Cn1cnc(S(=O)(=O)N2CCCC2)c1)Nc1cccc(Br)c1 | inactive: -18.4%
27 | Cc1ccc(CCNC(=O)CCCn2c(=O)c3ccccc3n(Cc3ccccc3C)c2=O)cc1 | inactive: -18.8%

Row | SMILES | activation
28 | O=C(COc1ccc(F)cc1)NCC(c1ccc(Cl)cc1)N1CCCCC1 (stereo not drawn) | inactive: -13.3%
29 | CC(=O)N1c2ccc(S(=O)(=O)N3CCCCCC3)cc2CC1C(=O)NCc1ccccc1C (stereo not drawn) | inactive: 0%
30 | NC(CCCP(=O)(O)O)C(=O)O (stereo not drawn) | inactive: 0.374%
31 | COc1cc(OC)c(-c2cc(C(=O)NCc3ccc(F)cc3)c3c(-c4ccccc4)[nH]nc3n2)cc1OC | inactive: -21.2%
32 | COc1ccc(CCNC(=O)Cn2c(=O)n(-c3ccccc3)c(=O)c3c(C)c(C)sc32)cc1OC | inactive: -0.407%
33 | Cc1ccc(-c2nc3ncccc3o2)cc1NC(=O)c1ccc(-c2ccc(Cl)cc2)o1 | inactive: -4.46%
34 | Cc1ccc(N(Cc2cccs2)C(=O)c2ccccc2Cl)cc1 | inactive: -17.9%
35 | Cc1cccc(N2CCN(S(=O)(=O)c3csc(C(N)=O)c3)CC2)c1C | inactive: 7.62%
36 | Cc1cccc(NC(=O)CSc2nc(-c3ccco3)cc(C(F)(F)F)n2)c1C | inactive: -3.97%
37 | CCOC(=O)c1ccc(NC(=O)c2cc3sccc3n2Cc2ccc(Cl)cc2)cc1 | inactive: -4.83%
38 | O=C(c1ccccc1Cl)N1CCCCC1CCN1CCCCC1 (stereo not drawn) | inactive: -4.93%
39 | O=C(Nc1nnc2n1CCS2)c1ccc(F)cc1F | inactive: -32.7%
40 | COc1ccc(C)cc1NC(=O)Cn1c(=O)n(Cc2nc(C)no2)c(=O)c2ccccc21 | inactive: -20.2%
41 | COc1ccc(NC(=O)C(C)N(c2ccccc2)S(C)(=O)=O)cc1 (stereo not drawn) | inactive: 1.24%
42 | CCOc1ccccc1NC(=O)C(CC)Sc1nc2ccncc2[nH]1 (stereo not drawn) | inactive: -8.99%
43 | COc1ccc(CCNC(=O)c2ccc(Cn3c(=O)c4ccccc4n(Cc4cccc(Cl)c4)c3=O)cc2)cc1OC | inactive: -1.84%
44 | CCOc1ccc(CN2CCc3nc(Nc4ccc5c(c4)OCCO5)ncc3C2)cc1 | inactive: 5.56%
45 | Cc1nn2c(=O)cc(COC(=O)c3ccccc3NC(=O)C(C)Oc3ccccc3)nc2s1 (stereo not drawn) | inactive: -4.95%
46 | CC(C)c1ccc(NS(=O)(=O)c2ccc3nc(-c4ccccc4)[nH]c3c2)cc1 | active: 110%
47 | COc1ccc(NCc2cc3cc4c(cc3n(CC(=O)Nc3cc(C)ccc3C)c2=O)OCCO4)cc1 | inactive: -26.4%
48 | Cn1c(=O)c2cc(C(=O)NCCCN3CCN(c4ccccc4F)CC3)sc2c2ccccc21 | inactive: -0.668%
49 | Cc1ccc(-n2c(=O)c3ccc(C(=O)NCc4ccco4)cc3n(Cc3ccccc3C#N)c2=O)cc1 | inactive: -73.5%
50 | CCOc1ccc(C2CC(=O)N(c3cccc(F)c3)C3=C2C(=O)OC3)cc1 (stereo not drawn) | inactive: -5.8%
51 | Cc1ccc(-n2nc3c(=O)n(CCCC(=O)NCCc4ccccc4Cl)nc(C)c3c2C)cc1 | inactive: -18.6%
52 | CCN(CC)c1cc2c(cc1F)c(=O)c(S(=O)(=O)c1cccc(C)c1)cn2C | inactive: -11.7%
53 | Cc1ccc(-c2cn(-c3cccc(Cl)c3)c(S(=O)(=O)CC(=O)Nc3ccccc3F)n2)cc1 | inactive: -2%
